# Laboratory results published in the supplement of paper PMC8728848.
# Some of the results follow.
# Columns and labels:
# Assay in all cases: glycan array binding signal (z-score within array); higher = stronger binding
# Details in all cases: glycan notation: IUPAC condensed, linker removed; mutation: D151N
# [1] = target: Gal(b1-4)GlcNAc(b1-2)Man(a1-3)[Gal(b1-4)GlcNAc(b1-2)Man(a1-6)]Man(b1-4)GlcNAc(b1-4)GlcNAc
# Method in brief: (§1)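 Glycan array data were curated from 3228 arrays in the Consortium for Functional Glycomics database and kept only where the protein sequence was available. Glycan names were converted to IUPAC-condensed notation, and columns mapping to the same glycan were averaged. The binding signal is a within-array Z-score, averaged across arrays of the same protein sequence at different concentrations or buffers and across linkers. Negative Z-scores can be read as non-binding.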
# [2] = target: Gal(b1-4)GlcNAc(b1-2)Man(a1-3)[Gal(b1-4)GlcNAc(b1-2)Man(a1-6)]Man(b1-4)GlcNAc(b1-4)[Fuc(a1-6)]GlcNAc
# Method in brief: as §1
# [3] = target: Gal(b1-4)GlcNAc(b1-2)Man(a1-3)[Gal(b1-4)GlcNAc(b1-2)Man(a1-6)][GlcNAc(b1-4)]Man(b1-4)GlcNAc(b1-4)[Fuc(a1-6)]GlcNAc
# Method in brief: as §1
# [4] = target: Gal(b1-4)GlcNAc(b1-2)Man(a1-3)[Man(a1-6)]Man(b1-4)GlcNAc(b1-4)GlcNAc
# Method in brief: as §1
# [5] = target: Gal(b1-4)GlcNAc(b1-2)Man(a1-6)[GlcNAc(b1-2)Man(a1-3)]Man(b1-4)GlcNAc(b1-4)[Fuc(a1-6)]GlcNAc
# Method in brief: as §1
# [6] = target: Gal(b1-4)GlcNAc(b1-2)Man(a1-6)[Man(a1-3)]Man(b1-4)GlcNAc(b1-4)GlcNAc
# Method in brief: as §1
# [7] = target: Gal(b1-4)GlcNAc(b1-2)Man(a1-6)[Man(a1-3)]Man(b1-4)GlcNAc(b1-4)[Fuc(a1-6)]GlcNAc
# Method in brief: as §1
# [8] = target: Gal(b1-4)GlcNAc(b1-2)[Gal(b1-4)GlcNAc(b1-4)]Man(a1-3)[Fuc(a1-3)[Gal(b1-4)]GlcNAc(b1-2)Man(a1-6)]Man(b1-4)GlcNAc(b1-4)GlcNAc
# Method in brief: as §1
# [9] = target: Gal(b1-4)GlcNAc(b1-2)[Gal(b1-4)GlcNAc(b1-4)]Man(a1-3)[Gal(b1-4)GlcNAc(b1-2)[Gal(b1-4)GlcNAc(b1-6)]Man(a1-6)]Man(b1-4)GlcNAc(b1-4)GlcNAc
# Method in brief: as §1
# [10] = target: Glc(a1-2)Glc(a1-3)Glc(a1-3)Man(a1-2)Man(a1-2)Man(a1-3)[Man(a1-2)Man(a1-3)[Man(a1-2)Man(a1-6)]Man(a1-6)]Man(b1-4)GlcNAc
# Method in brief: as §1
# [11] = target: Glc(a1-2)Glc(a1-3)Glc(a1-3)Man(a1-2)Man(a1-2)Man(a1-3)[Man(a1-3)[Man(a1-6)]Man(a1-6)]Man(b1-4)GlcNAc
# Method in brief: as §1
# [12] = target: Glc(a1-3)Glc(a1-3)Man(a1-2)Man(a1-2)Man(a1-3)[Man(a1-2)Man(a1-3)[Man(a1-2)Man(a1-6)]Man(a1-6)]Man(b1-4)GlcNAc(b1-4)GlcNAc
# Method in brief: as §1
# [13] = target: Glc(a1-3)Glc(a1-3)Man(a1-2)Man(a1-2)Man(a1-3)[Man(a1-3)[Man(a1-6)]Man(a1-6)]Man(b1-4)GlcNAc
# Method in brief: as §1
# [14] = target: Glc(a1-3)Man(a1-2)Man(a1-2)Man(a1-3)[Man(a1-2)Man(a1-3)[Man(a1-2)Man(a1-6)]Man(a1-6)]Man(b1-4)GlcNAc(b1-4)GlcNAc
# Method in brief: as §1
# [15] = target: Glc(a1-6)Glc(a1-6)Glc(a1-6)Glc(a1-6)Glc(a1-6)Glc
# Method in brief: as §1
# [16] = target: Glc(b1-3)Glc(b1-3)Glc(b1-3)Glc(b1-3)Glc(b1-3)Glc
# Method in brief: as §1
# [17] = target: Glc(b1-6)Glc(b1-6)Glc(b1-6)Glc(b1-6)Glc(b1-6)Glc
# Method in brief: as §1
# [18] = target: GlcA(b1-3)GlcNAc(b1-4)GlcA(b1-3)GlcNAc(b1-4)GlcA(b1-3)GlcNAc(b1-4)GlcA(b1-3)GlcNAc(b1-4)GlcA(b1-3)GlcNAc(b1-4)GlcA(b1-3)GlcNAc(b1-4)GlcA(b1-3)GlcNAc(b1-4)GlcA(b1-3)GlcNAc
# Method in brief: as §1
# [19] = target: GlcNAc(b1-2)Man(a1-3)[GlcNAc(b1-2)Man(a1-6)]Man(b1-4)GlcNAc(b1-4)GlcNAc
# Method in brief: as §1
# [20] = target: GlcNAc(b1-2)Man(a1-3)[GlcNAc(b1-2)Man(a1-6)]Man(b1-4)GlcNAc(b1-4)[Fuc(a1-6)]GlcNAc
# Method in brief: as §1
# [21] = target: GlcNAc(b1-2)Man(a1-3)[GlcNAc(b1-2)Man(a1-6)][GlcNAc(b1-4)]Man(b1-4)GlcNAc(b1-4)GlcNAc
# Method in brief: as §1
# [22] = target: GlcNAc(b1-2)Man(a1-3)[Man(a1-3)[Man(a1-6)]Man(a1-6)][GlcNAc(b1-4)]Man(b1-4)GlcNAc(b1-4)GlcNAc
# Method in brief: as §1
# [23] = target: GlcNAc(b1-2)[GlcNAc(b1-4)]Man(a1-3)[GlcNAc(b1-2)Man(a1-6)][GlcNAc(b1-4)]Man(b1-4)GlcNAc(b1-4)GlcNAc
# Method in brief: as §1
# [24] = target: GlcNAc(b1-2)[GlcNAc(b1-4)]Man(a1-3)[GlcNAc(b1-2)[GlcNAc(b1-4)][GlcNAc(b1-6)]Man(a1-6)][GlcNAc(b1-4)]Man(b1-4)GlcNAc(b1-4)GlcNAc
# Method in brief: as §1
# [25] = target: GlcNAc(b1-2)[GlcNAc(b1-4)]Man(a1-3)[GlcNAc(b1-2)[GlcNAc(b1-6)]Man(a1-6)]Man(b1-4)GlcNAc(b1-4)GlcNAc
# Method in brief: as §1
binder,measurement,setting,value
"ZG16p (Homo sapiens), O60844 (protein) ARSSSYSGEYGGGGGKRFSHSGNQLDGPITALRVRVNTYYIVGLQVRYGKVWSDYVGGRNGDLEEIFLHPGESVIQVSGKYKWYLKKLLFVTDKGRYLSFGKDSGTSFNAVPLHPNTVLRFISGRSGSLINAIGLHWDVYPSSCSRC",glycan array binding signal (z-score),[1],-0.561
same,glycan array binding signal (z-score),[2],0.636
same,glycan array binding signal (z-score),[3],-0.565
same,glycan array binding signal (z-score),[4],-0.565
same,glycan array binding signal (z-score),[5],-0.565
same,glycan array binding signal (z-score),[6],-0.565
same,glycan array binding signal (z-score),[7],-0.194
same,glycan array binding signal (z-score),[8],-0.545
same,glycan array binding signal (z-score),[9],-0.44
same,glycan array binding signal (z-score),[10],0.042
same,glycan array binding signal (z-score),[11],0.09
same,glycan array binding signal (z-score),[12],1.79
same,glycan array binding signal (z-score),[13],1.04
same,glycan array binding signal (z-score),[14],-0.368
same,glycan array binding signal (z-score),[15],2.29
same,glycan array binding signal (z-score),[16],0.696
same,glycan array binding signal (z-score),[17],0.764
same,glycan array binding signal (z-score),[18],2.37
same,glycan array binding signal (z-score),[19],-0.565
same,glycan array binding signal (z-score),[20],-0.565
same,glycan array binding signal (z-score),[21],-0.565
same,glycan array binding signal (z-score),[22],-0.565
same,glycan array binding signal (z-score),[23],-0.565
same,glycan array binding signal (z-score),[24],-0.299
same,glycan array binding signal (z-score),[25],-0.552
